According to paper PMC6919601, “Identification of Plasmodium dipeptidyl aminopeptidase allosteric inhibitors by high throughput screening” (PLoS ONE, 2019):
“And” between values parts separate entries of the source, which are not always exact repeats. Equal values may be shown once. Hit rate of the full screen: of about 110,000 compounds, about 230 (0.21%) showed an effect of 50% or more. The list shows a part of the results.

Molecular target: DPAP1 (Plasmodium falciparum, UniProt Q8IIJ9)
Assay: primary screen, percent inhibition; read by cleavage of a fluorogenic dipeptide substrate; higher = more effect of the substance
Design: species or system P. falciparum D10 trophozoite lysates; single well
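Note: 30 min substrate incubation versus DMSO and 10 µM JCP410 controls.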

Sequence of DPAP1 (Q8IIJ9 whole entry, looked up): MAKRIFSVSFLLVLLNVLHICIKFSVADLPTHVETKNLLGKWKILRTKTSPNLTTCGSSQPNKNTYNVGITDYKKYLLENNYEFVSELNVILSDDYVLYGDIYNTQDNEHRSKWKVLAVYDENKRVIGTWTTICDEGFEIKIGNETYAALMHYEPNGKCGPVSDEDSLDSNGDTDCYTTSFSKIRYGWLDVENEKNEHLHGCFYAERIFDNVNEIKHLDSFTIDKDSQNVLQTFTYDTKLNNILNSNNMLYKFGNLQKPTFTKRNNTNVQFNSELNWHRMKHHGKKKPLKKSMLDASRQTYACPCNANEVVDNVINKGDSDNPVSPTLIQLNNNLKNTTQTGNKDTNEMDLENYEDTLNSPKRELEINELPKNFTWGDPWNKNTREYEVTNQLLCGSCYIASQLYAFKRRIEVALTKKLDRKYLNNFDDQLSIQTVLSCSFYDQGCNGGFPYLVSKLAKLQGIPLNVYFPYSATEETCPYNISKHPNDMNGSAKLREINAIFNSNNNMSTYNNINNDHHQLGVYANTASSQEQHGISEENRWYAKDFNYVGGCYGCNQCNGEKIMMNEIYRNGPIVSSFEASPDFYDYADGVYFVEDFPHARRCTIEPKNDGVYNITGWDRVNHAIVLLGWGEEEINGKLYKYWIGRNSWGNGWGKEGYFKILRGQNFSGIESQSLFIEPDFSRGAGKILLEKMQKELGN

Compound | % Inhibition @ 10 uM
CCn1c(SCC(=O)NCC2CCCO2)nc2c(c1=O)SCC2 (centres unmarked) | 1.31%
CCCN(Cc1cc(Cl)cc(Cl)c1O)CC1CC1 | -1.21%
CN(C)CP(=O)(O)CCc1ccccc1 | -3.27%
CCOc1ccc(NC(=O)c2cccc(C(=O)Nc3ccc(OCC)cc3)n2)cc1 | -0.872%
Cn1ccc(C(=O)Nc2cnn(Cc3ccc(Cl)c(Cl)c3)c2)n1 | -1.28%
O=C(NCc1cccnc1)C1CCC(CNS(=O)(=O)c2cccc3cccnc23)CC1 (centres unmarked) | -2.42%
COc1ccc(OC)c(NC(=O)c2ccc([N+](=O)[O-])cc2)c1 | 2.54%
Cc1nnc(N2CCCC(C(=O)N3CCCC3)C2)c2nn(-c3ccccc3)c(C)c12 (centres unmarked) | -4.18%
Cc1csc(NC(=O)c2sc3nc4c(c(C(F)(F)F)c3c2N)CCC4)n1 | 5.26%
CC(=O)c1nc2ccccc2n1Cc1ccc(Cl)cc1 | -6.17%
CC(=O)N1CCC(N2CCN(Cc3ccccc3)CC2)CC1 | -1.64%
CCN(Cc1ccccc1)C(=O)Cn1ncc2c3ccccc3n(Cc3ccccc3)c2c1=O | 4.95%
Cc1ccc(Cn2nc(C)c(NC(=O)C3CC3)c2C)cc1 | -0.0619%
CC(C)(C)NC(=O)c1ccc(NC(=O)CSc2ccc(Cl)cc2)cc1 | -1.11%
COc1ccccc1CNC(=O)CCCOc1ccc(Cl)cc1Cl | 8.06%
CCc1ccc(S(=O)(=O)c2nnn3c2nc(N2CCCC2)c2cc(Cl)ccc23)cc1 | -4.85%
COc1ccc(CN2CCN(C)CC2)c(O)c1 | 3.48%
CCc1ccccc1NC(=O)c1ccc(C(C)(C)C)cc1 | 1.13%
Cn1cc(S(=O)(=O)N2CCOCC2)cc1C(=O)NCc1ccccc1 | 1.96%
COc1ccc(C2C3=C(O)CC(C)(C)CC3=NC(C)=C2C(=O)Nc2cc(C)ccn2)c(OC)c1 (centres unmarked) | -9.79%
CCOC(=O)N1CCC(NCCOC)CC1 | -5.44%
CCO/C=C1/C(=O)N(c2ccc(OC)cc2)C(=O)c2cc(OC)ccc21 | 9.02%
Cc1cc2ccccc2c(=O)n1CC(=O)NCC(=O)N1CCC2(CC1)OCCO2 | 0.457%
CCCC(=O)N1c2ccccc2Sc2ccccc21 | -5.94%
Cc1cc(C)nc(NC(=O)Nc2cccc(Cl)c2)c1 | 2.48%
Cc1cc(-c2ccco2)n(CC(=O)NCCCc2ccccc2)n1 | -1.75%

Compound | % Inhibition @ 10 uM
O=C(NCc1ccccn1)C1CCN(c2nc3ccccc3n3cccc23)CC1 | 1.51%
CCc1ccc(-c2cc(C(F)(F)F)n3nc(C(=O)NCc4cnn(C)c4C)cc3n2)s1 | 1.39%
COc1ccc(/C=N/OCc2cccc(Br)c2)cc1OC | 4.54%
Cc1c(CCC(=O)O)c(=O)oc2c(C)c3oc4c(c3cc12)CCCC4 | 3.81%
CC(C)CNC(=O)C1CCN(C(=O)c2ccc(F)cc2)CC1 | 0.316%
O=C(CNS(=O)(=O)c1ccccc1)Nc1ccccc1F | 0.964%
COc1ccc(CCCC(=O)Nc2cccc(OC)c2)cc1 | -2.88%
Cn1c(=O)c2c(nc(CN3CCCCC3)n2CCCc2ccccc2)n(C)c1=O | -1.43%
CCC(=O)N(Cc1ccco1)C1CC(=O)N(c2ccccc2)C1=O (centres unmarked) | 0.76%
COc1ccc(C2C(C(=O)c3ccccc3)=C(O)C(=O)N2Cc2ccccc2)c(OC)c1 (centres unmarked) | -5.13%
CCS(=O)(=O)c1nc(S(=O)(=O)c2ccc(C)cc2)c(N2CCC3(CC2)OCCO3)s1 | -0.522%
OC1=C2C(=Nc3ccccc3NC2c2ccsc2)CC(c2cccs2)C1 (centres unmarked) | -1.06%
O=C(C(c1ccccc1)c1ccccc1)N1CCN(C2CCN(Cc3ccccc3)CC2)CC1 | -9.65%
COc1cccc(-c2ccc(-c3noc(-c4cccc(C)c4)n3)c(OC)n2)c1 | -3.13%
COC(=O)C1=C(C)N(Cc2ccccc2)C(=O)/C1=C\c1cccc(O)c1 | 3.43%
COc1ccc(C2C(C#N)=C(N)Oc3c2c(O)nc2ccccc32)cc1 (centres unmarked) | -4.04%
Cc1ccc(CNC(=O)c2ccc3nc(N4CCC(C)CC4)sc3c2)cc1 | -0.637%
Cc1cccc(N2C(=O)C(Cl)=C(Nc3ccc(F)cc3)C2=O)c1 | -2.45%
Cc1ccc(S(=O)(=O)N2CCC(C(=O)Nc3ccc(C(F)(F)F)cc3)CC2)cc1 | -6.43%
COc1cc(C(=O)Nc2ccc(N(C)C(C)=O)cc2)cc(OC)c1OC | -6.67%
CCOCCCNC(=O)NC(C)c1c(-n2cccc2)sc2c1CCN(C)C2 (centres unmarked) | 3.95%
O=C(NCCc1ccccc1)c1cccc2c1C(=O)N(CC1CCCO1)C2 (centres unmarked) | -1.03%
CCOC(=O)N1CCN(C(=O)c2ccc(C#CC(C)(C)O)cc2)CC1 | -1.32%
NC(=O)c1ccccc1NC(=O)c1cc(-c2ccccc2Cl)nc2ccccc12 | 17.8%
Cc1ccc(/C=C/C(=O)c2cc3cc(Cl)ccc3oc2=O)cc1 | -3.28%
OCCSCc1nc(O)c2c(n1)-c1ccccc1CC21CCCCC1 | 6.38%

Compound | % Inhibition @ 10 uM
O=C(NCCN1CCOCC1)c1ccc(CS(=O)(=O)c2ccc(Br)cc2)o1 | -4.53%
CCOC(=O)N1CCC(NC(=O)c2cc(C(=O)NCc3cccc(Cl)c3)ccc2CO)CC1 | -1.03%
O=C1c2cccc3cccc(c23)C(=O)N1CCCN1C(=O)c2cccc3cccc(c23)C1=O | 12.1%
Cc1cc(C)n(CC(O)COCc2ccco2)n1 (centres unmarked) | 4.05%
Cc1cc(N2CCN(c3ccco3)CC2)n2nc(C)nc2n1 | -2.8%
Cc1ccc(-n2c(S)nnc2CN2CCSCC2)cc1 | 1.88%
O=C(CN1C(=O)c2ccccc2Sc2ncccc21)NCc1cccc(Cl)c1 | -8.19%
CC(=O)Nc1ccc(S(=O)(=O)N2CCN(Cc3ccccc3)CC2)cc1 | -2.44%
N#CC1=C(N)Oc2[nH]nc(-c3ccccn3)c2C1c1ccco1 (centres unmarked) | -4.41%
O=C(CSc1nc2ccc(Br)cc2c2nc3ccccc3n12)Nc1nccs1 | -2.92%
Oc1nc(-c2ccccc2)nc2c1oc1ccccc12 | 6.51%
Cc1nc2ccccc2n1C/C=C/c1ccccc1 | 4.94%
Cc1cc(Cl)ccc1OCC(=O)Nc1ccc(Cl)cc1 | -5.32%
Cc1cccc(C(=O)Nc2ccc(Br)cc2)c1 | -1.62%
Cc1cccc(NC(=O)CCc2ccc(S(=O)(=O)NC3CCCCC3)cc2)c1 | 3.37%
CCOc1ccc(N2C(=O)CC(NCCc3ccccc3F)C2=O)cc1 (centres unmarked) | 4.27%
O=C(c1ccccc1)N1CCN(c2ccc(NCc3ccc4c(c3)OCO4)cc2)CC1 | -5.23%
Cc1ccc(S(=O)(=O)N2CCN(C(=O)CN3CCCC3)C2)cc1 | 4.54%
CCOc1ccc(NC(=O)Cc2ccc(Cl)cc2)cc1 | -1.43%
CCSc1nnc2n(CC)c3ccccc3n12 | 6.01%
CCCCSc1nnc(NC(=O)Cc2coc3ccc(OC)cc23)s1 | -1.31%
CCCSc1nc(C)c(CCC(C)C)c(O)n1 | 4%
Cc1cc(C)c(S(=O)(=O)Nc2ccc(O)c(C(=O)O)c2)cc1C | 2.86%
CCn1cc(Cl)c(C(=O)N(C)C23CC4CC(CC(C4)C2)C3)n1 | 0.687%
N#Cc1c(Nc2ccccc2)ccnc1S | 5.48%
COc1cccc(C2C(C#N)=C(N)Oc3cc(N)ccc32)c1 (centres unmarked) | 1.4%

Compound | % Inhibition @ 10 uM
c1ccc(-c2nnn3c2nc(N2CCOCC2)c2ccccc23)cc1 | -2.92%
Cc1cc2cc(C)nn2c(N)n1 | -3.56%
COC(=O)c1ccccc1NC(=O)c1ccc(OC(C)C)cc1 | 1.94%
CC1CCN(S(=O)(=O)c2ccc(NC(=O)Cc3ccc(Cl)cc3)cc2)CC1 | 2.4%
COc1cccc(OCc2ccc(C(=O)N3CCN(c4ccccc4)CC3)cc2)c1 | 2.73%
Nc1c(-c2nc(-c3ccncc3)no2)nnn1-c1ccc(C(F)(F)F)c(Cl)c1 | 3.73%
Cc1cc(-c2ccco2)n(CC(=O)NCc2ccccc2Cl)n1 | -1.75%
COCCNC(=O)c1cc2nc(-c3ccc(Br)cc3)cc(C(F)(F)F)n2n1 | -1.04%
CSc1nsc(SCC(=O)Nc2ccccn2)n1 | -1.15%
CCc1ccc(N2CC(C(=O)Nc3cccc(O)c3)CC2=O)cc1 (centres unmarked) | 1.93%
O=C(NCc1ccc2c(c1)OCO2)C1c2ccccc2C(=O)N(C2CCCC2)C1c1cccs1 (centres unmarked) | -5.3%
O=C(COCc1cc(-c2ccc3c(c2)OCO3)on1)Nc1cc(-c2cccc(Cl)c2)no1 | 1.34%
O=C(Cn1cc2c(n1)CCCCC2)NC1CCCc2ccccc21 (centres unmarked) | 0.137%
Cc1nc2c(C(=O)N3CCN(c4ccccn4)CC3)cnn2c(C)c1Cc1ccccc1Cl | 2.79%
CCCCN(C)CCCNC(=O)C1CCC(CNS(=O)(=O)c2c(C)cc(C)cc2C)CC1 (centres unmarked) | -2.72%
O=C(O)CC(NC(=O)COc1ccccc1)c1ccccc1 (centres unmarked) | 8.82%
CC1=C(C(=O)Nc2ccccc2F)C(c2ccc3c(c2)OCO3)C2=C(O)CC(c3ccccc3)CC2=N1 (centres unmarked) | -4.48%
Cc1ccc(C)c(Cc2c(C)nc3c(C(=O)NC4CCC(C)CC4)cnn3c2C)c1 (centres unmarked) | 1.27%
O=C(Nc1ccc(OCC(=O)N2CCOCC2)cc1)c1ccccc1Cl | 0.823%
COc1ccc2c(c1)c1nc(SC)n(C)c(=O)c1n2C | 1.7%
COc1ccc(CN2CCN(CCOCCO)CC2)cc1C | -3.8%
O=C(NCCCN1CCCC1=O)Nc1cnc2ccccn2c1=O | 5.2%
COc1cc(/C=C/c2cc(C(F)(F)F)nc(O)n2)ccc1O | 2.41% and -5.85%
